Results taken from the antibiotic and cytotoxicity screens of Wong et al. (2023).
The other results are listed elsewhere or left out.

tested on: S. aureus RN4220; assay: growth inhibition call (relative growth <= 0.2); conditions: 50 µM

Growth inhibition call, inactive:
CC(=O)OC1CCC2(C)C3=C(CCC2C1(C)C)C1(C)CCC(C(C)CCC=C(C)C)C1(C)CC3 (centres undefined)
CS(=O)(=O)N1CCCN(C(=O)CN2C(=O)COc3ccccc32)CC1
Cn1ccnc1
C[C@@H]1CN([C@@H](C)CO)C(=O)c2cccc(NS(=O)(=O)c3cn(C)cn3)c2O[C@@H]1CN(C)Cc1ccc(C(=O)O)cc1
C[C@@H]1CCCCO[C@H](CN(C)S(=O)(=O)c2ccc(F)cc2)[C@@H](C)CN([C@@H](C)CO)C(=O)c2cc(NC(=O)Cc3ccccc3)ccc2O1
C[C@@H]1CN([C@@H](C)CO)C(=O)c2cccc(NC(=O)Nc3cccc4ccccc34)c2O[C@H]1CN(C)S(=O)(=O)c1cccc(F)c1
Cc1cc(O)c2c(c1)C(=O)c1cccc(O)c1C2=O
COc1ccc2c3c([nH]c2c1)[C@H](CO)N(C[C@]13CCN(CC1)C(=O)Nc1ccccc1)C(=O)Nc1ccc(cc1)F
C=CCC[C@H](Cc1ccc(F)cc1)C(=O)OC[C@@H](NC(=O)[C@@H](CC=C)CC(=O)N(CCO)Cc1ccccc1)c1ccccc1
